Screen size: about 270,000 compounds; about 620 (0.23%) were called active. The inconclusive results got no clear call from the source; some entries with a clear call stand among them for comparison. Calls come from the whole dose curve; as a rule, active = well fitted inhibition curve with a large enough effect in the polarisation, with a control signal flat (not every such curve was filed as active); inconclusive = small, poorly fitted or top-dose-only effect, or effect the other way, or a change in a side signal; inactive = no such curve, though single readings can be large or run the other way; the % refers to the polarisation. Where the call is inconclusive, the potency comes from a doubtful curve fit. A note “side channel” means that the fit belongs to a control or component signal, not to the main read-out.
Biological target: Menin (Homo sapiens) (UniProt O00255)
Chain of UniProt O00255 (O00255 whole entry, looked up): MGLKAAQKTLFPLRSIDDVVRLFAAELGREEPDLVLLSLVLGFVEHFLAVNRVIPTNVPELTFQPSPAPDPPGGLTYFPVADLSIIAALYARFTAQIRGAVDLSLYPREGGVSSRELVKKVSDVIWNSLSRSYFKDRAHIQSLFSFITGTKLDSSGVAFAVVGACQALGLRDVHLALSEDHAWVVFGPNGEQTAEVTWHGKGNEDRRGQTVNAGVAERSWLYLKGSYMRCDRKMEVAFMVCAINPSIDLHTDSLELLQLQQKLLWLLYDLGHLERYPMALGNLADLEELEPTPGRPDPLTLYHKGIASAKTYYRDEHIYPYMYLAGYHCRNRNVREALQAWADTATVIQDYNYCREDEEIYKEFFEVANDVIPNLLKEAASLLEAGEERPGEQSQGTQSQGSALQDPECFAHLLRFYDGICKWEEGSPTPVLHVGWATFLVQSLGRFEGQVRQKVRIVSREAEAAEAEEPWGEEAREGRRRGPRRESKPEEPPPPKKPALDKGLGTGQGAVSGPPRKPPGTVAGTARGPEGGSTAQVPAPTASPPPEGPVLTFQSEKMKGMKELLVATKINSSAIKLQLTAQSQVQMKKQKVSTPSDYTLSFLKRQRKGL
Test: qHTS Assay for Inhibitors Targeting the Menin-MLL Interaction in MLL Related Leukemias: Competition With Texas Red Labeled MLL-derived Mutant Peptide
Details: fluorescence polarization; series mostly up to 61.6 µM
Potency is the fitted concentration of half-maximal effect; tags give direction and shape of the fitted curve or compound fluorescence and quenching.

Potency, inactive:
CC1=C(C(=O)N2CCOCC2)C(c2ccc(O)cc2)NC(=S)N1 (centres undefined)
Cc1cccc(NS(=O)(=O)c2cc3c(cc2C)n(C)c(=O)c(=O)n3C)c1
O=C(c1ccc(Br)o1)N1CCN(c2ccc3nnc(-c4ccccc4)n3n2)CC1

Potency, inconclusive:
N/C(=N\OS(=O)(=O)c1ccc(Cl)cc1)c1cccnc1 8.91 µM [inhibitor, single point]
COc1ccc(C(O)(CC(C)C)C(CN2CCOCC2)c2ccccc2)cc1 (centres undefined) 5.01 µM [fluorescent, side channel, full curve]
Cc1c(NC(=O)c2c([N+](=O)[O-])cnn2C)c(=O)n(-c2ccccc2)n1C 3.98 µM [inhibitor, single point]
CC(=O)N(CCc1cccc(C)c1)Cc1cc2ccc(C)cc2[nH]c1=O 11.2 µM [fluorescent, side channel, partial curve]
O=C(Nc1c(C(=O)c2ccccc2)oc2ccccc12)c1cc(-c2ccccc2O)n[nH]1 1.41 µM [quencher, side channel, full curve, poor fit]
Nc1nonc1-c1noc(-c2ccc(Br)o2)n1 39.8 µM [inhibitor, single point]
COc1ccc2c(c1)c(C(C)=O)c(C)n2CCc1ccccc1 20 µM [fluorescent, side channel, partial curve]
Cc1cc(/C=C(/C#N)c2nc3ccccc3[nH]2)c(C)n1-c1ccccc1C(=O)O 25.1 µM [quencher, side channel, single point]
COc1ccc([N+](=O)[O-])cc1NC(=O)C(C)c1ccccc1 (centres undefined) 10 µM [quencher, side channel, partial curve]
COc1cccc(-c2nc(NCCc3c[nH]c4ccc(OC)cc34)c3ccccc3n2)c1 15.8 µM [quencher, side channel, partial curve]
O=C(N/N=C/c1c[nH]c2ccccc12)c1ccc(Cl)cc1 28.2 µM [quencher, side channel, partial curve]
O=C1C(Cl)=C(N2CCN(Cc3ccccc3)CC2)C(=O)N1Cc1ccccc1 28.2 µM [fluorescent, side channel, partial curve]
CCCN1/C(=C2/SC(=S)N(CC)C2=O)C=Cc2ccccc21 2.82 µM [quencher, side channel, full curve]
Cc1cc(=O)oc2cc(OCC(=O)NCCc3c[nH]c4ccc(F)cc34)ccc12 31.6 µM [fluorescent, side channel, single point]
COc1cccc(C(=O)Nc2nnc(S(=O)(=O)N(C)Cc3ccc(F)cc3)s2)c1 11.2 µM [quencher, side channel, partial curve]
Cc1cc(Br)c(NC(=O)COC(=O)CSc2nnc(-c3ccc(Cl)cc3)o2)c(Br)c1 39.8 µM [inhibitor, single point]
COc1cccc(OC)c1OCCN1CCN(C(c2ccccc2)c2ccccc2)CC1 7.08 µM [fluorescent, side channel, full curve]
CSc1ccccc1NC(=O)Nc1ccc(Cl)cc1 12.6 µM [quencher, side channel, partial curve]
O=C(O)C(=O)/C(=C\c1ccc([N+](=O)[O-])cc1)c1ccc2ccccc2n1 10 µM [quencher, side channel, partial curve]
CCc1ccc(CN2CCC(Oc3ccc(C(=O)N4CCCC4)cc3)CC2)cc1 6.31 µM [fluorescent, side channel, partial curve]
Cc1cc2[nH]c(=O)c(=O)[nH]c2cc1S(=O)(=O)N1CCN(c2cccc(C(F)(F)F)c2)CC1 28.2 µM [quencher, side channel, single point]
CC(C)(C)n1nnnc1C(c1ccccn1)N(Cc1ccccc1)Cc1ccc(Cl)cc1 (centres undefined) 3.55 µM [fluorescent, side channel, full curve]
CC(C)(C)c1cc(CCC(=O)NCCc2ccccn2)cc(C(C)(C)C)c1O 1.78 µM [inhibitor, partial curve]
COc1cccc(N2C(=O)C(CC(=O)Nc3ccccc3)N(C3CCCCC3)C2=O)c1 (centres undefined) 28.2 µM [quencher, side channel, single point]
COc1ccc(NC(=O)CCC(=O)Nc2nnc(C3CCCCC3)s2)c(OC)c1 35.5 µM [quencher, side channel, single point]
Oc1ccc(C=Nc2ccc3ncccc3c2)c(O)c1 28.2 µM [quencher, side channel, partial curve]
O=C(CCS(=O)(=O)Cc1ccc(Cl)cc1)NCCc1ccccc1 12.6 µM [fluorescent, partial curve]
COc1ccc(N(CC(=O)N/N=C/c2ccc(-c3ccc([N+](=O)[O-])cc3)o2)S(=O)(=O)c2ccc(C)cc2)cc1 25.1 µM [quencher, side channel, single point]
CCOC(=O)Oc1ccc2c(c1)C(C)=CC(C)(C)N2C(=O)OCC 11.2 µM [inhibitor, partial curve]
COc1cc(/C=C2\SC(c3ccccc3)=NC2=O)cc(Cl)c1O 17.8 µM [fluorescent, side channel, partial curve]
CS(=O)(=O)Nc1ccc(-c2ccc(/C=C3\SC(N)=NC3=O)o2)cc1 3.16 µM [quencher, side channel, full curve]
CCC(C)c1ccc(S(=O)(=O)N2CCN3CCCC3C2)cc1 (centres undefined) 31.6 µM [inhibitor, single point]
O=c1c2ccccc2cnn1-c1ccc(Br)cc1 25.1 µM [inhibitor, single point]
CCOc1ccccc1C(=O)N(C)Cc1cc2cc(OC)ccc2[nH]c1=O 22.4 µM [inhibitor, partial curve]
Clc1ccc2c(c1)C(N1CCNCC1)=Nc1ccccc1O2 11.2 µM [fluorescent, side channel, partial curve]
CCOC(=O)c1cccc(NC(=O)c2cnc3ccccc3n2)c1 14.1 µM [quencher, side channel, partial curve]
OCCN(CCO)c1ccc(C(c2ccccc2Cl)c2ccc(N(CCO)CCO)cc2Cl)c(Cl)c1 39.8 µM [quencher, side channel, single point]
COc1cccc2c1C(=O)c1c(O)c3c(c(O)c1C2=O)C[C@@](O)(C(=O)CO)C[C@@H]3OC1C[C@@H](N)[C@H](O)[C@H](C)O1 (some centres undefined) 14.1 µM [fluorescent, side channel, partial curve]
COc1ccc2c(c1)CC(C(=O)Nc1ccc(Cl)cc1)/C(=N/O)O2 (centres undefined) 39.8 µM [fluorescent, single point]
CCOC(=O)C1C(=O)C=C(/C=C/c2ccc(N(C)C)cc2)CC1c1ccccc1 (centres undefined) 3.16 µM [fluorescent, side channel, full curve]
O=C(NCC(=O)N(c1cccnc1)C(C(=O)NC1CCCC1)c1ccco1)c1cccs1 (centres undefined) 1.58 µM [inhibitor, full curve, poor fit]
CCOC(=O)C1=C(N)Oc2cc(O)ccc2C1c1ccc(F)cc1F (centres undefined) 17.8 µM [quencher, side channel, single point]
COc1ccc2c(COC(=O)CC3Sc4ccccc4NC3=O)cc(=O)oc2c1 (centres undefined) 7.08 µM [fluorescent, side channel, single point]
CCN1CCN(c2nnc(-c3ccc(C)cc3)c3ccccc23)CC1 39.8 µM [inhibitor, partial curve]
Cc1ccccc1OCC(O)Cn1c(N2CCN(c3ccccc3)CC2)nc2c1c(=O)[nH]c(=O)n2C (centres undefined) 7.94 µM [inhibitor, partial curve]
COc1ccccc1C1CCN(Cc2cccc(C(=O)N3CCC(O)CC3)c2)CC1 10 µM [inhibitor, partial curve]
CCn1c(SCc2ccc(C)cc2)nnc1C1CCN(S(=O)(=O)c2ccc(OC)cc2)CC1 20 µM [fluorescent, side channel, partial curve, poor fit]
Cc1ccc(C)c(NC(=O)CCC(=O)N/N=C/c2cc([N+](=O)[O-])ccc2O)c1 12.6 µM [quencher, side channel, partial curve]
O=C(Nc1ccc(S(=O)(=O)Nc2ccccc2)cc1)C1COc2ccccc2O1 (centres undefined) 11.2 µM [quencher, side channel, partial curve]
Cc1cc(Nc2ccccc2)nc(-c2ccccc2O)n1 14.1 µM [quencher, side channel, partial curve]
O=C(/C=C/c1ccc(F)cc1)NC(=S)NNC(=O)[C@H]1C[C@@H]1c1ccccc1 10 µM [quencher, side channel, partial curve]

Reference: PubChem BioAssay AID1768 (National Center for Advancing Translational Sciences (NCATS), 2009)
